The whole screen tested about 52,000 compounds, of which about 4,300 (8.3%) were called active. Cut-off read from the data, not from the text of the source: active = survival mostly below about 52% (no sharp cut-off); inactive = mostly above about 56%. This is one part of the list.

The test system of this assay is DeltatarO mutant. In words: S. aureus survival, RN4220 and DeltatarO strains – OD600, teichoic acid synthesis inhibitors, primary screen (AID 463173). The conditions noted are these: S. aureus RN4220 wild type/DeltatarO growth, OD600, 18 h, active compounds read low, screened at 18.75 µg/mL (by protocol).
Regarding `Nc1cc(N)nc(SCC(=O)c2ccccc2)n1`, the survival is inactive: 81%. Regarding `CCOC(=O)c1cccc(NC(=O)c2ccc3nc(CCc4ccccc4)oc3c2)c1`, the survival was inactive: 83%. To `O=C(c1ccc2c(c1)N(Cc1ccc(Cl)cc1)C(=O)c1ccccc1S2=O)N1CCC(Cc2ccccc2)CC1` (stereo not given) belongs inactive: 74%; to `O=C(NCCCc1nc2ccccc2n1Cc1cccc(Cl)c1)C1CCCCC1`, inactive: 56%. To `COc1ccccc1N1CCN(Cc2nnc(-c3ccccc3C)o2)CC1` belongs inactive: 78%; to `Cc1ccccc1OCC(=O)Nc1ccc2nc(SCC(N)=O)sc2c1`, inactive: 61%; to `COC(=O)c1cn(CC(=O)NC2CCCCCC2)c2ccccc12`, inactive: 106%. The figure for `CCCCOC(=O)c1ccc(NC(=O)c2csnn2)cc1` is inactive: 77%; for `CC1=C(C(=O)Nc2ccccc2)C(c2ccc[nH]2)n2ncnc2N1` (stereo not given) it is active: 20%; for `O=C1OCc2ccc(NC(=O)C3CCCCC3)cc21` it is inactive: 83%. On to `CCn1cc(C(=O)NCCc2ccc(C)cc2)c(=O)c2cc(S(=O)(=O)N3CCC(C)CC3)ccc21`, for which the survival is inactive: 57%. The figure for `CCCOc1ccc(OC(=O)c2cn(-c3ccc(OC)cc3)c(=O)c3ccccc23)cc1` is inactive: 80%.

For the molecule `COc1ccc(S(=O)(=O)N(Cc2cc3cc4c(cc3[nH]c2=O)OCCO4)C2CCCC2)cc1`, the survival was inactive: 95%.

For the molecule `COC(=O)c1ccc(NC(=O)C(=O)NCC(c2cccnc2)N2CCc3ccccc32)cc1` (stereo not given), the survival was active: 34%. The figure for `Cc1c(Cl)cccc1NC(=O)Cn1nnc(-c2nc(-c3ccccc3)no2)c1N` is inactive: 79%; for `CCCOc1ccc(C(=O)Nc2ccc3oc(-c4ccc(N(C)C)cc4)nc3c2)cc1` it is inactive: 64%; for `Cc1cccc(C)c1NC(=O)CSc1nc2ccccc2c2nc(CCc3c(C)n[nH]c3C)nn12` it is inactive: 94%. The figure for `COC(=O)c1c(-c2ccc(Cl)cc2)noc1N1CCN(c2ccc(F)cc2)CC1` is inactive: 83%; for `COc1ccc(NC(=O)c2csnn2)cc1` it is inactive: 107%.

`Cc1ccc(NC(=O)Cn2c(=O)n(Cc3ccc(C(=O)NCc4ccc5c(c4)OCO5)cc3)c(=O)c3ccccc32)cc1`: the survival is inactive: 102%. The figure for `CC(C)c1cc(C(=O)NCc2ccccc2)no1` is inactive: 54%; for `CCOc1ccc(CNC(=O)CCS(=O)(=O)c2ccc3c(c2)oc(=O)n3C)cc1` it is inactive: 83%. To `CCOc1ccccc1NC(=O)C1=C(C)Nc2ncnn2C1c1cccs1` (stereo not given) belongs active: 37%; to `Cc1cccc(N2CCN(C(=O)c3ccc4c(Cl)c5c(nc4c3)CCCC5)CC2)c1C`, inactive: 93%.

Turning to `COc1cccc(-c2nn3c(=O)cc(CN4CCN(C(=O)/C=C/c5ccccc5)CC4)nc3s2)c1`, the survival is inactive: 85%.

The record behind these values is PubChem BioAssay AID463173 (ICCB-Longwood Screening Facility, Harvard Medical School, 2010).
